Assay results taken from PubChem BioAssay AID1963576 (National Center for Advancing Translational Sciences (NCATS), 2024).
Hit rate of the full screen: of about 46,000 compounds, about 60 (0.1%) were called active. About 3% were inconclusive and are not listed. Calls follow the shape of the dose curve; as a rule, active = well fitted inhibition curve with a large enough effect; inconclusive = small, poorly fitted or top-dose-only effect; inactive = no such curve, though single readings can be large or run the other way. The list shows a part of the results.

assay: Primary qHTS assay for Inhibitors of ovarian cancer metastasis using an organotypic tumor microenvironment (TME) model.; also: nearly all actives have a fitted effect of over 65% in size;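 as to activity change, negative = inhibition: plate controls were DMSO wells for no effect and tomatine positive control wells for full effect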; conditions: SKOV3ip1-GFP adhesion/invasion on 3D omental model, fluorescence; series mostly up to 45.8 µM; activity change, negative = inhibition: at the top concentration
In short: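 Primary human omental fibroblast/mesothelial 3D culture pre-formed 48 h. SKOV3ip1-GFP cells added with compounds (0.36-46 umol/L), incubated 2 h RT/16 h 37 C, fixed; GFP cells quantified at 488/509 nm.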

Activity change, negative = inhibition, inactive:
COCCCNC(=O)Cn1c(=O)n(-c2ccc(C)c(C)c2)c(=O)c2c3c(sc21)CCCCC3 30.8%
O=C(COc1ccc(F)cc1)Nc1nnc(S(=O)(=O)N2CCCC2)s1 -1.6%
COc1ccccc1CNC(=O)c1ccc2[nH]c(C)c(C)c2c1 -0.537%
NCCCCCC(=O)O 8.99%
Cc1cccc(N(C)S(=O)(=O)c2nnc(NC(=O)c3cccs3)s2)c1 -3.66%
CCOC(=O)c1cccc(NC(=O)Cn2c(=O)c3cccn3c3ccccc32)c1 -0.571%
COCCNC(=O)c1sc2ncccc2c1-n1c(C)ccc1C -10.2%
COc1cc(NC(=O)C2CCN(S(=O)(=O)Cc3ccccc3)CC2)c(OC)cc1Cl -0.377%
O=C(c1ccc2c(c1)OCO2)c1cn(Cc2ccc(Cl)cc2)c2ccc(F)cc2c1=O 0.355%
COc1cccc2c(C)cc3nnc(SCC(=O)Nc4ccc(C)cc4)n3c12 -20.7%
O=C(Cn1ncc2c1-c1ccccc1OC2)N1CCN(c2ccccc2)CC1 1.97%
COCCNC(=O)CN1C(=O)c2cccnc2Sc2ccccc21 -12.5%
CC(C)(C)OC(=O)N1CCC(c2c(C(=O)N3CCN(c4ccccn4)CC3)cnn2-c2ccc(F)cc2)CC1 4.63%
COc1ccc2c(c1)c(=O)c(S(=O)(=O)c1ccc(F)cc1)cn2Cc1ccccc1Cl 0.778%
CCN(CC)S(=O)(=O)c1ccc(C(=O)NCCSc2c(-c3ccc(F)cc3)[nH]c3ccccc23)cc1 -13.4%
CC1CCC(NC(=O)c2ccc(CS(=O)(=O)c3ccc(Cl)cc3)o2)CC1 (configuration not stated) -8.09%
CCCCOc1ccc(C(=O)N2CCCCC2CCN2CCOCC2)cc1 (configuration not stated) -25.2%
Cc1ccc2c(c1)C(=O)[C@]1(O)CCN(c3ccccc3)C1=N2 11.9%
CC(C)OCCCNC(=O)CN1C(=O)c2cccnc2Sc2ccccc21 6.45%
CCCOc1cccc(C(=O)N(Cc2sccc2C)C2CCS(=O)(=O)C2)c1 (configuration not stated) -9.42%
COc1ccc(CNC(=O)c2cnc(N(C)C)nc2)cc1 -3.5%
CCC(=O)Nc1ccc2nc(SCCOc3ccc(C)cc3OC)sc2c1 4.46%
CCn1c(=O)cc(OCC(=O)N2CCN(c3ccc(C)cc3)C(C)C2)c2ccccc21 (configuration not stated) -3.69%
CC(=O)c1ccc(NC(=O)CSc2nc(-c3ccc(C)cc3)nc3c2c(=O)n(C)c(=O)n3C)cc1 -7.27%
COc1ccc2c(Oc3ccc(NC(=O)c4c(C)n(CC(C)(C)O)n(-c5ccccc5)c4=O)nc3)ccnc2c1 -10.6%
Cc1cccn2cc(-c3cccc(NC(=O)C(C)C)c3)nc12 0.159%
COc1c(C)cnc(Cn2cnc3c(Cl)nc(N)nc32)c1C 12.7%
Cn1c(=O)n(Cc2ccccc2)c(=O)c2c1nc1n2CCN1c1ccccc1 -9.34%
O=C(Cn1cc(SCc2c(F)cccc2Cl)c2ccccc21)N1CCCCC1 6.33%
CCCN1C(=O)c2[nH]nc(-c3ccccc3)c2C1c1cccc(O)c1 (configuration not stated) 9.34%
CCOc1ccc(-c2nnc(SCC(=O)NCc3ccccc3Cl)o2)cc1 -8.38%
COCc1cc(C)nc2c1C(=O)NC(c1ccc(C)cc1)N2Cc1ccccc1 (configuration not stated) -4.57%
O=C(CSc1cn(CC(=O)N2CCCCC2)c2ccccc12)NCc1ccccc1 -8.98%
COc1ccc2c(c1)CCc1sc(NC(=O)c3cccc(Br)c3)nc1-2 6.27%
COc1ccccc1NC(=O)CSC1=Nc2ccccc2C2=NC(Cc3ccccc3)C(=O)N12 (configuration not stated) -19%
CCOc1ccc(S(=O)(=O)N2CCN(c3cccc(C(F)(F)F)c3)CC2)cc1OCC -7.46%
CCOc1ccc(CNC(=O)C2CCN(c3nnc(-n4c(C)ccc4C)s3)CC2)cc1 14.5%
Cc1ccc(-c2onc(C)c2C)cc1S(=O)(=O)NCc1ccc(N(C)C)cc1 8.1%
CC=CC(=O)N(CC)c1ccccc1C 5.4%
CCOC(=O)N1CCc2c(sc3c2c(=O)n(Cc2ccccc2)c(=O)n3Cc2cccc(C)c2)C1 -1.38%
CCc1nc2c(cnn2-c2ccc(C)cc2)c(=O)n1Cc1ccccc1 22.6%
O=C(C1CC1)N1CC[C@@H](Cn2c(-c3ccc(-c4ccc5occc5c4)cc3)nc3cnccc32)C1 -9.37%
COc1cccc(Cn2c(=O)n(-c3cccc(Cl)c3)c(=O)c3c4c(sc32)CN(C(C)=O)CC4)c1 -0.483%
O=C(NCc1ccccc1)C(=O)NCC(c1ccco1)S(=O)(=O)c1ccc(Cl)cc1 (configuration not stated) -10.8%
COc1ccc(NC(=O)c2cc(C)nc3c2c(C)nn3-c2ccc(C)cc2)cc1OC -22.2%
CC(=O)c1ccc(NC(=O)CCc2c(C)nc3c(c2C)c(=O)n(C)c(=O)n3C)cc1 14.1%
CSc1ncc(Cl)c(C(=O)Nc2ccc(S(=O)(=O)Nc3nccc(C)n3)cc2)n1 6.58%
Cc1c2cnn(CC(=O)N3CCN(c4ccccc4)CC3)c(=O)c2c(C)n1Cc1ccccc1Cl 3.23%
CC1=C(C)C(=O)C(C(CCCCCC(=O)O)c2ccccc2)=C(C)C1=O (configuration not stated) 1.66%
COc1ccc(CCNC(=O)c2cc3n(n2)CCCN(Cc2ccc(C)cc2)C3=O)cc1OC 7.61%
Cc1cc(C)cc(-n2cnc3cc(C(=O)NC4CCCCCC4)ccc32)c1 0.87%
Cc1ccc(CCNC(=O)c2ccc3[nH]c(C)c(C)c3c2)cc1 8.75%
O=S(=O)(NCCS(=O)(=O)N1CCN(c2cccc(Cl)c2)CC1)c1ccc(F)cc1 -5.06%
CCOc1ccc(C2=NC(c3cccs3)=Nc3ccc(CC)cc3N2)cc1OCC 9.63%
Cc1[nH]c2ccc(Br)cc2c1CCNC(=O)c1cc2ccccc2oc1=O -6.4%
COC(=O)CN1C(=O)C(C)(C)c2cc(S(=O)(=O)Nc3ccc(Br)cc3F)ccc21 -12.9%
O=C(NCc1ccccc1F)c1sc2ncccc2c1-n1cccc1 4.75%
CC(=O)c1cccc(-n2c(=O)c3c4c(sc3n(Cc3cccc(C)c3)c2=O)CN(C(C)=O)CC4)c1 3.29%
Cc1cccc(NC(=O)CN2C(=O)C(c3ccccc3)=NC23CCC(C)CC3)c1 (configuration not stated) 1.81%
Cc1cc(C)n(CCc2nc3c4ccccc4nc(N4CCN(c5cccc(C)c5C)CC4)n3n2)n1 0.205%
COc1cc(OC)cc(C(=O)Nc2cc3c(cc2N2CCOCC2)n(C)c(=O)n3C)c1 2.35%
COc1ccc(-n2nc3cc(C)c(NC(=O)c4ccc(-c5ccc(Br)cc5)o4)cc3n2)cc1 6.58%
CC(=O)N1CCCc2cc(S(=O)(=O)N3CCCC(C(=O)Nc4ccc(C)cc4C)C3)ccc21 (configuration not stated) 5.73%
CCc1ccc(S(=O)(=O)c2cn(C)c3cc(N4CCCC4)c(F)cc3c2=O)cc1 17.4%
COc1ccc(C(=O)Nc2ccc3c(c2)CCCN3S(=O)(=O)c2ccc(C)cc2)c(OC)c1 5.37%
CCOc1ccc(C(=O)NCCc2csc(-c3cccc(F)c3)n2)cc1OCC -3.62%
CCOC(=O)CC(NC(=O)CCc1c(C)nc2ncnn2c1C)c1ccc(C)cc1 (configuration not stated) 15.8%
O=C(NCCC1=CCCCC1)C1CCN(C(=O)N2CCOc3ccc(Cl)cc32)CC1 -8.98%
Cc1cn2c(=O)c(S(=O)(=O)Nc3ccc(F)cc3F)c(C)nc2s1 5.96%
COc1cccc(NC(=O)C2CCCN(S(=O)(=O)c3cccc4nonc34)C2)c1 (configuration not stated) 11.4%
CN(Cc1ccccc1)c1ccc(-c2nc(-c3ccncc3)no2)cc1[N+](=O)[O-] -8.08%
O=C(NCc1ccco1)c1ccc2c(c1)N(Cc1ccc(Cl)cc1)C(=O)c1ccccc1S2(=O)=O -28.6%
COC(=O)c1nnn(-c2ccc(Br)cc2)c1C(=O)OC 1.08%
COc1ccc(-c2nnc(SCC(=O)Nc3ccc(C)c(C)c3)s2)cc1 8.49%
CCOc1ccc(N2C(=O)c3[nH]nc(-c4ccc(OC)cc4)c3C2c2cccs2)cc1 (configuration not stated) -23.4%
COCCCNC(=O)c1ccc2c(c1)N(Cc1ccccc1F)C(=O)c1ccccc1S2=O (configuration not stated) -22.6%
Cc1cnc(Nc2ccc(OCCN3CCCC3)cc2)nc1Nc1cccc(S(=O)(=O)NC(C)(C)C)c1 32.5%

outcome, inactive:
CCCCNC(=O)C(CC)Sc1nc2ccccc2c(=O)n1Cc1ccco1 (configuration not stated)
COc1ccc(OC)c(NS(=O)(=O)c2ccc(-n3cccn3)cc2)c1
COc1ccc(NC(=O)c2nnn(Cc3nc(-c4cc(OC)c(OC)c(OC)c4)oc3C)c2C)cc1Cl
Cc1cc(C)n2nc(CNC(=O)c3c(F)cccc3F)nc2n1
Cc1ccc(C(=O)c2sc(Nc3ccccc3)c(S(=O)(=O)c3ccccc3)c2N)c(C)c1
CCC(C)n1c(=O)c2sccc2n2c(CCCC(=O)NCc3ccccc3Cl)nnc12 (configuration not stated)
Cc1ccc(-c2cn3cccnc3n2)cc1NC(=O)Nc1ccc(F)cc1
Cc1cc(Cl)ccc1OCC(=O)N(Cc1sccc1C)C1CCS(=O)(=O)C1 (configuration not stated)
CCN(CC)CCNC(=O)C(=O)NCC(c1ccc2c(c1)OCO2)N1CCOCC1 (configuration not stated)
Cc1ccc(NC(=O)c2oc3ccccc3c2NC(=O)Cc2ccccc2)cc1
CCc1ccc(NC(=O)Cn2c(=O)n(CCCCC(=O)NCc3ccccc3Cl)c(=O)c3ccccc32)cc1
Cc1cc(C)c(S(=O)(=O)NCC(c2ccco2)N2CCOCC2)c(C)c1 (configuration not stated)
CCn1c(=O)cc(OCC(=O)NCc2ccccc2OC)c2ccccc21
Cc1ccccc1Nc1nn2c(=O)c3ccc(C(=O)NCc4ccccc4)cc3nc2s1
C=CCC(CC=C)(CNC(=O)C(=O)Nc1ccc(C)cc1)c1ccccc1
CCN(CC)c1ccc(NC(=O)CN2CCN(c3ccccc3F)CC2)cc1
CCn1cc2nc(SCC(=O)Nc3ccc(C)cc3)n(Cc3ccc(C)cc3)c(=O)c2n1
Cc1cc(C)cc(C(=O)NCC(c2ccc(N(C)C)cc2)N2CCCC2)c1 (configuration not stated)
O=C(NCc1ccc(Cl)cc1)c1ccc(Cn2c(=O)c3cccn3c3cccnc32)cc1
Oc1ccccc1Nc1nc2ccccc2n2nnnc12
